Data as given in PubChem BioAssay AID1030 (National Center for Advancing Translational Sciences (NCATS), 2008).
About 16,000 (7.3%) of roughly 220,000 compounds were called active. The inconclusive results got no clear call from the source; some entries with a clear call stand among them for comparison. Calls follow the shape of the dose curve; as a rule, active = well fitted inhibition curve with a large enough effect (not every such curve was filed as active); inconclusive = small, poorly fitted or top-dose-only effect, or another doubt; inactive = no such curve, though single readings can be large or run the other way. No potency is given beside an inconclusive call; the fits are too rough.

target: Aldehyde dehydrogenase 1A1 (Homo sapiens) (UniProt P00352); test: qHTS Assay for Inhibitors of Aldehyde Dehydrogenase 1 (ALDH1A1); conditions: Purified ALDH1A1, NADH fluorescence, propionaldehyde substrate; series mostly up to 75.3 µM;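 as to activity, negative = inhibition: plate controls were no enzyme wells and a reference inhibitor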
Chain of UniProt P00352 (P00352 whole entry, looked up): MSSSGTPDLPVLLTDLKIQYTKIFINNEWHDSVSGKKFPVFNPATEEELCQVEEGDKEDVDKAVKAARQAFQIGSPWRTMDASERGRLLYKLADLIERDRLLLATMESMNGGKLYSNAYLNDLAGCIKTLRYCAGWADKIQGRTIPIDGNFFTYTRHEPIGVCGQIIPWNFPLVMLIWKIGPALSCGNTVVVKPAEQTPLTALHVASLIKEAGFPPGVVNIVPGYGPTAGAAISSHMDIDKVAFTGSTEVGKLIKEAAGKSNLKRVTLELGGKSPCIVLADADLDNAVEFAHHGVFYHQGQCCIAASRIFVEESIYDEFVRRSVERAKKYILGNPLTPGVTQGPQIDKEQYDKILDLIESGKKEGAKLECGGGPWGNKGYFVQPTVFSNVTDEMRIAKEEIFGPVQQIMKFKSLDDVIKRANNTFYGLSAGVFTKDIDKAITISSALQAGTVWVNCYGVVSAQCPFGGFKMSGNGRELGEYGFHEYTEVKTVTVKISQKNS
Potency is read from the fitted curve at half-maximal effect; tags tell the direction and shape of the fitted curve.

Structure (SMILES)	Potency	activity, negative = inhibition
C=CCSc1nccc(-c2cc(Cl)sc2Cl)n1	inactive	
CCn1cc(C(=O)NCCCN2CCCC(C)C2)c(=O)c2cc(S(=O)(=O)N3CCc4ccccc4C3)ccc21 (centres undefined)	inconclusive [inhibitor, single point]	
CCOC(=O)c1ccc(CNC(=O)c2n[nH]c(=O)c3ccccc23)o1	inconclusive [inhibitor, single point]	
O=c1oc2cc(Br)ccc2n1CSC1=NCCS1	inconclusive [inhibitor, full curve]	
Cc1c(NC(=O)CSc2cccc3cccnc23)c(=O)n(-c2ccccc2)n1C	inconclusive [inhibitor, single point]	
Cc1ncc(CN2CCC(CO)(Cc3ccccc3)CC2)s1	inactive	
C/C(=N\NS(=O)(=O)c1ccc(C)c([N+](=O)[O-])c1)c1ccc2c(c1)OCO2	active: 22.4 µM	
C/C(CC(=O)NC(C)(C)C)=N\NC(=O)COc1ccc(C)cc1Br	active: 14.1 µM	
CC(=O)c1c(OC(=O)c2ccc(C)cc2)c2ccccc2n1C	inconclusive [inhibitor, partial curve]	
COc1cc(C=O)ccc1OCc1cccc(Br)c1	inconclusive [inhibitor, single point]	
COc1ccc(-c2[nH]ncc2CN2CCN(Cc3cccs3)CC2)c(F)c1	inconclusive [inhibitor, single point]	
O=C1CCCC2=C1C(c1ccc(Br)cc1)c1c([nH]c(=S)[nH]c1=O)N2 (centres undefined)	inconclusive [inhibitor, single point]	
C/C(=N\NC(=O)CCn1nnc2ccccc21)c1cccs1	inactive	
CCOC(=O)Nc1cc2c(C)cc(=O)oc2cc1C	inconclusive [inhibitor, partial curve]	
COc1ccccc1N1CC(C(=O)OC(C)C(=O)N2CCCc3ccccc32)CC1=O (centres undefined)	inactive	
Cc1[nH]n(-c2ccc(F)cc2)c(=O)c1/C=N/c1sc2c(c1C#N)CCCC2	inconclusive [inhibitor, partial curve]	
CN(C)CCCN1C(=O)C(=O)/C(=C(/O)c2ccc3c(c2)OCCO3)C1c1ccco1 (centres undefined)	inactive	
Cc1cc(SCC(=O)c2ccccc2)n2nc(C)nc2n1	active: 20 µM	
COc1cccc(C2=NOC(C(=O)Nc3ccccc3SC)C2)c1 (centres undefined)	inactive	
Cn1ncc2c(N3CCN(c4ccc(Cl)c(Cl)c4)CC3)ncnc21	inactive	
Cc1ccc2cc(CCNC(=O)c3cccc([N+](=O)[O-])c3)c(=O)[nH]c2c1C	inconclusive [inhibitor, single point]	
CC(C)(C)c1ccc(S(=O)(=O)N2C=CC(C(F)(F)F)=NCC2)cc1	inconclusive [inhibitor, single point]	
COCCCNC(=O)C1CCCN(S(=O)(=O)c2ccc(C)cc2)C1 (centres undefined)	inactive	

Structure (SMILES)	Potency	activity, negative = inhibition
Cc1cc([N+](=O)[O-])ccc1NC1CCCC1	inconclusive [inhibitor, partial curve]	
COc1cccc(C(=O)c2c[nH]c(C(=O)NCc3cccnc3)c2)c1	inactive	
CO[C@@H]1/C=C\O[C@]2(C)Oc3c(C)c(O)c4c(O)c(c(CN5CCN(C)CC5)c(O)c4c3C2=O)NC(=O)/C(C)=C\C=C[C@@H](C)[C@@H](O)[C@H](C)[C@@H](O)C(C)[C@H](OC(C)=O)[C@@H]1C (some centres undefined)		inactive: 10.3% [at 13.5 µM]
Cc1cc2nnc(SC(C)C)n2c2ccccc12	inconclusive [inhibitor, single point]	
N=c1oc2cc(O)ccc2cc1C(=O)Nc1ccccn1	inconclusive [inhibitor, partial curve]	
CCC(=O)Nc1nc2c(s1)COc1ccccc1-2	inconclusive [inhibitor, single point]	
Cn1cnc([N+](=O)[O-])c1Sc1ncn[nH]1	inconclusive [inhibitor, single point]	
COC(=O)c1c(NC(=O)c2nn(C)cc2Cl)sc2c1CCCC2	inconclusive [inhibitor, partial curve]	
CC/C=C\C/C=C\C/C=C\C/C=C\C/C=C\C/C=C\CCC(=O)NCCO	inconclusive [inhibitor, single point]	
Cc1ccc(-n2c(N)c(C(=O)Nc3ccccc3F)sc2=S)cc1C	active: 10 µM	
CC(NC(=O)/C(C#N)=C/c1ccc(C(=O)O)cc1)c1ccccc1 (centres undefined)	inactive	
Cc1nn(-c2ccccc2)c(C)c1/C=N/n1c(-c2ccc(Cl)cc2)n[nH]c1=S	inconclusive [inhibitor, single point]	
COCCn1c(=O)[nH]c2cc(C(=O)NCCN3CCN(c4cccc(Cl)c4)CC3)ccc2c1=O	inconclusive [inhibitor, single point]	
COc1ccc(CC(=O)NC(=S)Nc2ccc(S(=O)(=O)NC(C)(C)C)cc2)cc1	inconclusive [inhibitor, single point]	
Cc1ccc(S(=O)(=O)Cn2nnnc2CN(Cc2ccco2)CC2CCCO2)cc1 (centres undefined)	inconclusive [inhibitor, single point]	
CCCCNC(C(=O)Nc1ccc([N+](=O)[O-])cc1Br)c1ccccc1 (centres undefined)	inconclusive [inhibitor, partial curve]	
COc1ccc(-c2oc3ccccc3c(=O)c2O)cc1OC	inconclusive [inhibitor, partial curve]	
O=C(/C=C\c1ccc(-c2cccc([N+](=O)[O-])c2)o1)N1CCOCC1	inconclusive [inhibitor, single point]	
Cc1ccc2occ(CN3CCN(c4ccccc4)CC3)c(=O)c2c1	inconclusive [inhibitor, single point]	
CCCC(=O)OCCNc1cc(Sc2nccn2C)c2nonc2c1[N+](=O)[O-]	inconclusive [inhibitor, single point]	
CCN(CC)C(=O)CSc1nc(-c2cccs2)cc(-c2cccs2)c1C#N	inconclusive [inhibitor, partial curve]	
COc1cccc(NC(=O)C(=O)N/N=C/c2cc(C)n(-c3ccc(Cl)c(Cl)c3)c2C)c1	inconclusive [inhibitor, single point]	
COc1ccc2[nH]cc(CCNc3ncncc3-c3ccc(N(C)C)cc3)c2c1	inconclusive [inhibitor, single point]	

Structure (SMILES)	Potency	activity, negative = inhibition
O=C(NC1CCCCCCC1)C1c2ccccc2C(=O)N1Cc1cccs1 (centres undefined)	inactive	
CCOC(=O)c1ccc2c(c1)n(CCO)c(C)[n+]2CC	inactive	
COc1ccc(Br)cc1S(=O)(=O)NNC(=O)c1c(C)nc2ccccn12	inconclusive [inhibitor, single point]	
Cc1c(C(=O)Oc2cccc3ccccc23)cnn1-c1ccccc1	inconclusive [inhibitor, single point]	
O=C(N/N=C/c1ccncc1)c1ccc(NS(=O)(=O)c2cccs2)cc1	inconclusive [inhibitor, single point]	
COc1ccc(Cl)cc1NC(=O)CN1CCCC1	active: 10 µM	
COc1cc(N=C(N)N=C(N)N)c2ncccc2c1		inactive: 9.07% [at 13.5 µM]
NC(=O)CNC(=O)[C@@H]1CC2(CC(c3ccc(Cl)cc3)=NO2)CN1C(=O)c1ccccc1 (some centres undefined)	active: 28.2 µM	
FC(F)(F)Oc1ccc(NC(=S)Nc2ccccc2N2CCOCC2)cc1	inconclusive [inhibitor, partial curve, poor fit]	
Cc1cc(/C=N/n2cnnc2)c(C)n1-c1ccc(OCc2ccc(Cl)cc2)cc1	inconclusive [inhibitor, partial curve]	
COc1ccc(-c2nc3c(c4c2C[C@H](c2ccccc2)OC4)CN(C(=O)Nc2cccc(C#N)c2)CC3)c(C)c1	inconclusive [inhibitor, partial curve]	
c1ccc(Cn2nnc3c(N4CCCC4)ncnc32)cc1	inconclusive [inhibitor, partial curve]	
O=C(CSc1nc2ncc(Br)cc2[nH]1)Nc1ccc2c(c1)OCO2	active: 25.1 µM	
CC1(C)CC(=O)C2=C(C1)OC(N)=C(C#N)C2C1CC=CCC1 (centres undefined)	active: 7.94 µM	
O=C(CCSc1ccc(Cl)cc1)NC12CC3CC(CC(C3)C1)C2	inconclusive [inhibitor, single point]	
CC(=O)COc1cc(C)cc2oc(=O)c(C)c(C)c12	inconclusive [inhibitor, partial curve]	
S=C(Nc1cccc(Cl)c1)N1CCN(Cc2ccccc2)CC1	inactive	
O=C1NC(=O)C2(COC(c3cccc([N+](=O)[O-])c3)OC2)S1 (centres undefined)	inconclusive [inhibitor, single point]	
CSCCC(NS(=O)(=O)c1ccc(Cl)cc1)C(=O)OCc1c(Cl)cccc1Cl (centres undefined)	inconclusive [inhibitor, single point]	
Cn1c(SCC(=O)N2CCc3ccccc3C2)nnc1-c1cccs1	inconclusive [inhibitor, single point]	
CC(C)c1ccc(S(=O)(=O)/N=C2/C=C(Sc3ncn[nH]3)C(=O)c3ccccc32)cc1	active: 1.78 µM	
COCCCNC(=O)C1CCN(C(=O)Nc2ccc(Cl)cc2)CC1	inactive	
CCOC(=O)c1c(NCC2CCCO2)c2ccccc2[nH]c1=O (centres undefined)	active: 15.8 µM	
